This is one part of the list.
These sequences were tested against T1, OsWOX13 (Oryza sativa, UniProt Q5QMM3 1-267) (assay: protein-binding microarray (RPBM); PBS, 2% BSA, 51.3 ng/ul salmon testes DNA, 50 uM zinc acetate, 200 nM TF, 25 C, 1 h; high values mean tight binding). Conditions: protein: recombinant; tags: N-terminal polyhistidine and DsRed monomer fusion (pET32a); label: CyDye5-dUTP incorporated in the synthesized complementary strand; 3' TTTTT single-stranded linker to array surface; dsDNA, one strand shown.
T1 sequence: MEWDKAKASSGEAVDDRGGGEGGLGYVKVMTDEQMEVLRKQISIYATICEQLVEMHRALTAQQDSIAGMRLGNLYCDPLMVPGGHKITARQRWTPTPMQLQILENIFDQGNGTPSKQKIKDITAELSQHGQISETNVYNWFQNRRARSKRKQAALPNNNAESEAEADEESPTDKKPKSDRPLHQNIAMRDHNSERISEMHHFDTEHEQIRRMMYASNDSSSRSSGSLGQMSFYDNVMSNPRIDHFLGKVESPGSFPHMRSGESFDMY
Outline: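 For the binding signal, per-feature fluorescence intensity was read in arbitrary units on an Axon 4000B scanner. Before scanning, a 2% BSA-blocked custom Agilent array made double-stranded with Cy5-dUTP was washed after 1 h at 25 °C with 200 nM protein and 50 µM zinc acetate. The proteins were Ni–NTA-purified transcription factors with N-terminal polyhistidine and DsRed fusions, expressed in E. coli BL21-CodonPlus.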

Sequence	binding signal
CGGTAACATGCAAATTACAAAAGCATGCTGATACGGAACTCGGAGTCACCTAGTGCAG	7470 fluorescence intensity (a.u.)
TATGTAATTTATTTTATTATTAGCCTACATTTAATACTTTCGGAGTCACCTAGTGCAG	10600 fluorescence intensity (a.u.)
TCTGAATTTAATTCCTGATACATCTACCCATACAAATTTGCGGAGTCACCTAGTGCAG	4650 fluorescence intensity (a.u.)
CGCGTCAATCACGCTAGCCCACCGGCGCCTTTCCGCCACGCGGAGTCACCTAGTGCAG	22500 fluorescence intensity (a.u.)
TTAATTTCATTTAAACTAACATTTAATATATTTGATAATACGGAGTCACCTAGTGCAG	7100 fluorescence intensity (a.u.)
CTAAATCATATGCTAATTTATCAAATTAATCTCGGTTCTACGGAGTCACCTAGTGCAG	21800 fluorescence intensity (a.u.)
ACATATTTTAATTATATAAAAGATGAGAGAGAAGAGCAGCCGGAGTCACCTAGTGCAG	3200 fluorescence intensity (a.u.)
TCTATGATGAAGATGATTGTACGTTCACAACTAGTTACCTCGGAGTCACCTAGTGCAG	22300 fluorescence intensity (a.u.)
TAGCATGATTAATTAAGTATTACTCTAAAGATTTAATGGACGGAGTCACCTAGTGCAG	37000 fluorescence intensity (a.u.)
GGTGACTTCGTCAATCTCTCCAGAATTTGCCGACCCAGTCCGGAGTCACCTAGTGCAG	9070 fluorescence intensity (a.u.)
AACAATTTAATGATATTAAAACAAACACAAACACATGTACCGGAGTCACCTAGTGCAG	3400 fluorescence intensity (a.u.)
GGTAATTGGGCCGTGGTCTAAAGTTAGTGGTCGGTTGAGACGGAGTCACCTAGTGCAG	14600 fluorescence intensity (a.u.)
CTTCTCGACCAGTGCTGATTGACCAACCAAAACCTCCGATCGGAGTCACCTAGTGCAG	6250 fluorescence intensity (a.u.)
ACATGTTAACAAAGTCACGTGATTTTAACTGCAGAGGATCCGGAGTCACCTAGTGCAG	8570 fluorescence intensity (a.u.)
TCATGTTGGCATTTTATCAATCACGTTTTGGGATGACATTCGGAGTCACCTAGTGCAG	12200 fluorescence intensity (a.u.)
ATTATTGAAATCACGATATATCGCATTCACATAACACGTACGGAGTCACCTAGTGCAG	11800 fluorescence intensity (a.u.)
TTTAGATGTACATTAATTGAGCTGCAATAATAGAGTTGTTCGGAGTCACCTAGTGCAG	23800 fluorescence intensity (a.u.)
CAGAAATTTGACAGGCAACCAACTGAATGGAACAATTCCACGGAGTCACCTAGTGCAG	16700 fluorescence intensity (a.u.)
CACCAAAGTTGACTGATTGCTACACTCTGAAACTAATCAGCGGAGTCACCTAGTGCAG	18500 fluorescence intensity (a.u.)
TTTAATAACGAAAACATAATTAATTATACTAATAGGGTTTCGGAGTCACCTAGTGCAG	22300 fluorescence intensity (a.u.)
ATTAAACTTTCAATTTTGGTGTGTTTATTGCCAATGTTTGCGGAGTCACCTAGTGCAG	4530 fluorescence intensity (a.u.)
ATGTAGATTTGAAATTCTCCGACAGCCGACAGGTGACAAACGGAGTCACCTAGTGCAG	4250 fluorescence intensity (a.u.)
AGTAGTAATGAATTTAATGAATCATGATGTTCCAGAGCATCGGAGTCACCTAGTGCAG	3870 fluorescence intensity (a.u.)
TATTCGCAAATTTAATTCCGTTAATGAATCTATACACATACGGAGTCACCTAGTGCAG	3880 fluorescence intensity (a.u.)
TAATAACTCGTAATTTTATAATATTAAGTACATTATTCATCGGAGTCACCTAGTGCAG	3380 fluorescence intensity (a.u.)
TTCTAATTGAAACAGTTTGTATTACAGATCACACATCTTCCGGAGTCACCTAGTGCAG	47900 fluorescence intensity (a.u.)
CTGTTCAATTATTGAAGATTTGTGAAACTTGTCCGATTTTCGGAGTCACCTAGTGCAG	26300 fluorescence intensity (a.u.)

Sequence	binding signal
CGCCAATTACAAATAGATAGAACCCTCGCCGAGCCGGTAACGGAGTCACCTAGTGCAG	22000 fluorescence intensity (a.u.)
ATTGACGGCGGATTGACCGTTATCGCAGGTCTCAGCCATACGGAGTCACCTAGTGCAG	11800 fluorescence intensity (a.u.)
CTCATGTTGATTAGGATGTTATATCAGCGAAATCAATTCACGGAGTCACCTAGTGCAG	24100 fluorescence intensity (a.u.)
TTGAAAATTGATCCATTTGGAGTAAGCCTTTGTTGTTAAACGGAGTCACCTAGTGCAG	8320 fluorescence intensity (a.u.)
TGATGTAATTAACATTCCAATTATTGTTTAGAATCATGCGCGGAGTCACCTAGTGCAG	36100 fluorescence intensity (a.u.)
GAAGACGACTGATCAATTGATCAAACCGATCTCTCCATAGCGGAGTCACCTAGTGCAG	8410 fluorescence intensity (a.u.)
GGTGATGATTGATGAAGCATATGATGTGTCGCTAAATGCTCGGAGTCACCTAGTGCAG	28400 fluorescence intensity (a.u.)
CAGATGATTAATCTATGATTTAAATTATCCCTATTCTTTTCGGAGTCACCTAGTGCAG	40100 fluorescence intensity (a.u.)
ACTAATTTGCTGCAGTTGCATGGCATCCCTGTCAGTTCCTCGGAGTCACCTAGTGCAG	30300 fluorescence intensity (a.u.)
GTTTATTGGCTAGCTAATAATCTAGTGCTATAATTAGCGCCGGAGTCACCTAGTGCAG	5940 fluorescence intensity (a.u.)
CAATTTTAATTTATAGGCCGAATTCAATCCAGGAAAAGAGCGGAGTCACCTAGTGCAG	10200 fluorescence intensity (a.u.)
TTAGACGTGATAGAGTGTAAAGTTTTACAGGATCTAAACACGGAGTCACCTAGTGCAG	6860 fluorescence intensity (a.u.)
CAGCAAATTAAGTCACTGTTTAGATTCCACCTTAAAATTTCGGAGTCACCTAGTGCAG	5180 fluorescence intensity (a.u.)
AGTGATTTACATTTTGTGTGCACTATGATGGAATCGCTTTCGGAGTCACCTAGTGCAG	43100 fluorescence intensity (a.u.)
TAATTAATTAATTGATTGATTGATTTGAAACTGATTAATTCGGAGTCACCTAGTGCAG	56200 fluorescence intensity (a.u.)
CAACTTAAACAGAACAGTAACACAAACCGTGACGAAATTGCGGAGTCACCTAGTGCAG	4880 fluorescence intensity (a.u.)
CTGTACAAATTTGTCGAAATGACCAAAATACCCCTATGACCGGAGTCACCTAGTGCAG	4660 fluorescence intensity (a.u.)
ATAAATTAATTTAGAATAAAATGTGACACATCCTAATACTCGGAGTCACCTAGTGCAG	34900 fluorescence intensity (a.u.)
ACTAAAATTATGTAGAAGAAATGCAATACAGGTTGCCGTACGGAGTCACCTAGTGCAG	3360 fluorescence intensity (a.u.)
GATATATATTAATTAATCAAATCAATCGAAGAAAATTTCACGGAGTCACCTAGTGCAG	19900 fluorescence intensity (a.u.)
TCCATGATTAGTCATAAGCGCTACAGTAATTCACATATGCCGGAGTCACCTAGTGCAG	30500 fluorescence intensity (a.u.)
ACTTCTATAACACCAAATTAATTAGTTTCATTAAATGTAACGGAGTCACCTAGTGCAG	12000 fluorescence intensity (a.u.)
ACGCATGACTAATCAACGTCGCTACAAGGTCCGAGAACAGCGGAGTCACCTAGTGCAG	3350 fluorescence intensity (a.u.)
TCAGGACTAACTGATCAATTAATCATTCTTAAGTAATTTTCGGAGTCACCTAGTGCAG	13000 fluorescence intensity (a.u.)
ACCGGGATTAATTCAATCATTCATTGTGCTTTGAAAGGGCCGGAGTCACCTAGTGCAG	37200 fluorescence intensity (a.u.)
TTTTCTGGTGGCAAGATGATTGAGATATACACCTTGAAGTCGGAGTCACCTAGTGCAG	7690 fluorescence intensity (a.u.)
ATTTACAAACTCGTTAATTGATGTAAACATAAGGTTACAACGGAGTCACCTAGTGCAG	12100 fluorescence intensity (a.u.)
